{"source": "PubChem BioAssay AID686978", "about": "(National Center for Advancing Translational Sciences (NCATS), 2013)", "note": "Out of some 420,000 compounds screened, about 64,000 (15%) were called active. Inconclusive means that the source gave no clear call. Such entries were picked first, then a sample of the others. The call rests on the fitted dose curve; in most records, active means well fitted inhibition curve with a large enough effect; inconclusive means small, poorly fitted or top-dose-only effect; inactive means flat fitted curve, though single readings scatter. Potencies of inconclusive entries are left out as doubtful fits. On the % scale 0 is the no-effect control and ±100 the full control effect; potency means the concentration at half of the fitted maximal effect; tags describe the fitted curve by direction and shape.", "data": [{"test": "qHTS for Inhibitors of human tyrosyl-DNA phosphodiesterase 1 (TDP1): qHTS in cells in absence of CPT; further: nearly all actives have a fitted effect of over 55% in size", "conditions": "DT40 Tdp1-/- hTDP1 cells, no CPT, ATP luminescence, 48 h; activity change, negative = growth inhibition: at 46.2 µM (top of the series) unless noted", "method_in_brief": "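Growth of hTDP1-complemented DT40 Tdp1-knockout cells is measured by ATP luminescence after at least 48 hr compound exposure at 37 °C, with DMSO substituting for the 20 nM CPT used in the parallel screen.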", "values": [{"smiles": "O=C(Nc1ccccc1-c1nc2ccccc2s1)C1=COCCO1", "Potency": "inconclusive [inhibitor, single point]"}, {"smiles": "CCc1ccc(NC(=O)CSC2=Nc3ccccc3C3=NC(CC(=O)NC4CCCCC4)C(=O)N23)cc1", "note": "(configuration not stated)", "Potency": "active: 9.2 µM"}, {"smiles": "CCOC(=O)N1CCN(C(=O)CCn2c(=S)[nH]c3ccccc3c2=O)CC1", "Potency": "inconclusive [inhibitor, single point]"}, {"smiles": "Cc1ccc(-n2[nH]c(C)c(C=Nc3ccc(S(=O)(=O)Nc4nccs4)cc3)c2=O)cc1C", "Potency": "active: 18.4 µM"}, {"smiles": "O=C(Nc1cc(=O)[nH]c2nc(-c3ccccc3)nn12)c1ccc(Cl)cc1", "Potency": "inactive"}, {"smiles": "N/C(CSc1nc(-c2ccccc2)c(-c2ccccc2)o1)=N\\O", "Potency": "inconclusive [inhibitor, single point]"}, {"smiles": "CCc1cc2c(=O)n(-c3ccccc3)cnc2s1", "Potency": "inconclusive [inhibitor, single point]"}, {"smiles": "Cc1[nH]c2ccccc2c1/C=N/Nc1ccc([N+](=O)[O-])cc1", "Potency": "inconclusive [inhibitor, single point]"}, {"smiles": "CCCOC(=O)c1ccccc1", "Potency": "inactive"}, {"smiles": "O=c1[nH]c(=S)[nH]c2c1C(c1ccc(Cl)c(Cl)c1)OC(CCc1ccccc1)C2", "note": "(configuration not stated)", "Potency": "inconclusive [inhibitor, single point]"}, {"smiles": "COc1ccc(N(CC(=O)N2CCc3ccccc3C2)S(=O)(=O)c2c(C)[nH]c(=O)[nH]c2=O)cc1", "Potency": "inactive"}, {"smiles": "O=C(NCC1CC1)c1ccc2nc(-c3ccoc3)c(-c3ccoc3)nc2c1", "Potency": "active: 11.2 µM"}, {"smiles": "Cc1cccc(NC(=O)COC(=O)c2ccc(S(=O)(=O)N3CCCC3)cc2)c1", "Potency": "inactive"}, {"smiles": "COc1ccccc1NC(=O)c1c([N+](=O)[O-])cnn1C", "Potency": "inactive"}, {"smiles": "COc1cccc(N(CC(=O)Nc2cccc(F)c2)S(C)(=O)=O)c1", "Potency": "inconclusive [inhibitor, full curve, poor fit]"}, {"smiles": "FC(F)(F)c1cnc(NNC(=S)Nc2ccccc2)c(Cl)c1", "Potency": "inconclusive [inhibitor, single point]"}, {"smiles": "CCOc1cc(-c2nc(C)c(C(C)=O)n2O)ccc1OCC(=O)Nc1cccc(C)c1", "Potency": "inactive"}, {"smiles": "N/C(=N\\N=C\\c1ccnc2ccccc12)SC1CC(=O)N(c2ccc(Br)cc2)C1=O", "note": "(configuration not stated)", "Potency": "active: 14.6 µM"}, {"smiles": "Cc1ccc(S(=O)(=O)N2CCN(S(=O)(=O)c3ccc(C)cc3)C2c2ccccc2)cc1", "Potency": "inconclusive [inhibitor, single point]"}, {"smiles": "O=C(Cc1ccc(Cl)cc1)c1ccccc1", "Potency": "inactive"}, {"smiles": "Cc1ccc(S(=O)(=O)N(C)C)cc1NC(=O)CCc1c[nH]c2ccccc12", "Potency": "inconclusive [inhibitor, single point]"}, {"smiles": "COc1ccccc1-c1nc2ccccc2nc1-c1ccccc1", "Potency": "inconclusive [inhibitor, partial curve]"}, {"smiles": "Cn1c(CNC(=O)C(C)(C)C)nc2ccccc21", "Potency": "inactive"}, {"smiles": "O=C(c1ccc(S(=O)(=O)c2ccccc2Cl)c([N+](=O)[O-])c1)N1CCCCCC1", "Potency": "active: 18.4 µM"}, {"smiles": "CC(C)(C)NC(=O)CN1CCN(C(=O)CCl)CC1", "Potency": "active: 20.6 µM"}, {"smiles": "C/C=N/N(c1ccccc1)c1ccccc1", "Potency": "inactive"}, {"smiles": "Cc1ccnc(NCc2c(O)ccc3ccccc23)c1", "Potency": "inactive"}, {"smiles": "CN(C(=O)c1ccc(S(=O)(=O)N(C)C)cc1)c1ccc2ccccc2c1", "Potency": "inconclusive [inhibitor, single point]"}, {"smiles": "Cn1ccc2c(-c3ccc(C(C)(C)C)cc3)cc3c(c21)C1CCC3O1", "note": "(configuration not stated)", "Potency": "active: 23.1 µM"}, {"smiles": "O=C(c1ccco1)n1nc(-c2ccc(Cl)cc2)nc1NCc1ccccc1", "Potency": "active: 18.4 µM"}, {"smiles": "COc1ccc(S(=O)(=O)N2CCC(c3ccncc3)CC2)cc1OC", "Potency": "inconclusive [inhibitor, single point]"}, {"smiles": "OCC(Cc1ccccc1)NCc1ccccc1C(F)(F)F", "note": "(configuration not stated)", "Potency": "inactive"}, {"smiles": "COc1ccc(NC(=O)c2cc(S(=O)(=O)NCC3COc4ccccc4O3)ccc2F)cc1", "note": "(configuration not stated)", "Potency": "inconclusive [inhibitor, single point]"}, {"smiles": "CCSC1=C(C#N)C(c2ccccc2Cl)CC(=O)N1", "note": "(configuration not stated)", "Potency": "inconclusive [inhibitor, single point]"}, {"smiles": "COc1ccc2c(c1)c(C(=O)N/N=C/c1cccs1)c(C)n2C", "Potency": "inconclusive [inhibitor, partial curve]"}, {"smiles": "CC/C=C\\C[C@H]1C(=O)CC[C@@H]1CC(=O)O", "Potency": "inactive"}, {"smiles": "CCC(Sc1ncnc2sc3c(c12)CCCC3)C(=O)OC(C)C", "note": "(configuration not stated)", "Potency": "inconclusive [inhibitor, single point]"}, {"smiles": "CCCC(=O)N1CC(=O)Nc2ccc(Cl)cc2C1c1ccccc1", "note": "(configuration not stated)", "Potency": "inconclusive [inhibitor, single point]"}, {"smiles": "O=C(Nc1ccc(Cl)cc1)c1ccc(-n2cncn2)c([N+](=O)[O-])c1", "Potency": "active: 16.4 µM"}, {"smiles": "C=CCCN(C(CC(C)C)C(=O)OC)S(=O)(=O)c1ccccc1Br", "note": "(configuration not stated)", "Potency": "inconclusive [inhibitor, single point]"}, {"smiles": "CCOC(=O)N1CCN(c2nc3c(C)cccn3c(=O)c2C=O)CC1", "Potency": "inconclusive [inhibitor, single point]"}, {"smiles": "CCOc1ccc2c(c1)N(C(=O)CN1C(=O)CCC1=O)C(C)(C)C=C2C", "Potency": "inconclusive [inhibitor, single point]"}, {"smiles": "COc1ccc(S(=O)(=O)NCC(c2ccc(N(C)C)cc2)N2CCc3ccccc32)cc1", "note": "(configuration not stated)", "Potency": "inconclusive [inhibitor, partial curve]"}, {"smiles": "COc1ccc([C@@H]2CC(=O)c3c(O)cc(O)cc3O2)cc1O", "Potency": "inconclusive [inhibitor, partial curve]"}, {"smiles": "COc1cc(C(=O)NCCSc2ccc(F)cc2)cc(OC)c1OC", "Potency": "inconclusive [inhibitor, partial curve]"}, {"smiles": "CC(C)Cn1c(SCC(=O)Nc2ncccn2)nc2ccccc21", "Potency": "inactive"}, {"smiles": "COC(=O)[C@@]1(C)[C@H]2C(=O)N(Cc3ccccc3)C(=O)[C@H]2[C@H]2CN=C(SCC(=O)c3ccccc3)N21", "Potency": "inconclusive [inhibitor, single point]"}, {"smiles": "Cn1c2nc(=O)n(-c3ccccc3)c(=O)c-2nc2c1CCCC2", "Potency": "inconclusive [inhibitor, single point]"}, {"smiles": "COc1ccc2[nH]c(=O)c(CN(c3ccccc3OC)S(=O)(=O)c3ccccc3)cc2c1", "Potency": "active: 14.6 µM"}, {"smiles": "COc1cccc(-c2ccc(NC(=O)C3CCCN(Cc4cnc(C)n4C)C3)cc2)c1", "note": "(configuration not stated)", "Potency": "inconclusive [inhibitor, single point]"}, {"smiles": "COc1ccc(Cl)cc1C(=O)NCCCSc1ccccc1", "Potency": "inconclusive [inhibitor, single point]"}, {"smiles": "CNC(=O)c1cc2c(=O)n3cccc(C)c3nc2n(C(C)C)c1=N", "Potency": "inconclusive [inhibitor, partial curve, poor fit]"}, {"smiles": "CCCCc1nnc(NC(=O)CN(C)S(=O)(=O)c2ccc(C)cc2)s1", "Potency": "inactive"}, {"smiles": "COc1cc(NC(=O)Cc2c(C(=O)O)n(C)c3ccccc23)cc(OC)c1OC", "Potency": "inactive"}, {"smiles": "Cc1nnc(NC(=O)c2ccc3ccccc3c2)o1", "Potency": "inconclusive [inhibitor, single point]"}, {"smiles": "CSc1ccc(CCNC(=O)Cn2ncc3c(=O)oc4ccccc4c32)cc1", "Potency": "inconclusive [inhibitor, single point]"}, {"smiles": "CCN1C(=O)[C@H]2[C@@H](c3ccc(-c4ccccc4)cc3)N[C@@](Cc3ccccc3)(C(=O)OC)[C@H]2C1=O", "Potency": "active: 18.4 µM"}, {"smiles": "Cn1cccc1Cc1nnc(SCC(=O)Nc2nccs2)n1CCc1ccccc1", "Potency": "inconclusive [inhibitor, partial curve]"}, {"smiles": "O=C1/C(=C/c2cccc(O)c2)SC(=S)N1CC1CCCO1", "note": "(configuration not stated)", "Potency": "inconclusive [inhibitor, partial curve]"}, {"smiles": "CCOc1ccc(OCC)c(NC(=O)C2CCN(S(=O)(=O)c3cn(C)cn3)CC2)c1", "Potency": "inactive"}, {"smiles": "Cc1ccc(NC(=O)C2CCCN2S(=O)(=O)c2ccc3nc(-c4ccccc4)[nH]c3c2)cc1F", "note": "(configuration not stated)", "Potency": "active: 10.3 µM"}, {"smiles": "COCCNC(=O)C1(C)CCCN(Cc2cc(-c3ccccc3)n(C)n2)C1", "note": "(configuration not stated)", "Potency": "inconclusive [inhibitor, single point]"}, {"smiles": "C[C@@H](NC(=O)c1nc[nH]c1C(=O)N(C)Cc1ccccc1)c1ccccc1", "Potency": "inconclusive [inhibitor, single point]"}, {"smiles": "C=CCN(CC=C)Cc1cc(=O)oc2cc(C)c(Cl)cc12", "Potency": "inconclusive [inhibitor, single point]"}, {"smiles": "COc1ccc(S(=O)(=O)NCC2CCCN(Cc3ccc(O)cc3)C2)cc1", "note": "(configuration not stated)", "Potency": "inactive"}, {"smiles": "CCOCCn1c(CN2CCN(c3cccc(Cl)c3)CC2)nc2c1c(=O)n(C)c(=O)n2C", "Potency": "active: 5.17 µM"}, {"smiles": "C=CCn1c(=O)c2ccccc2n2c(SCC(=O)NCCc3ccccc3)nnc12", "Potency": "inconclusive [inhibitor, partial curve]"}, {"smiles": "CCc1nc2ccc(C(=O)N(CC)CCN(C)C)cn2c1N(C)Cc1cccs1", "Potency": "inactive"}, {"smiles": "Cc1ccc(S(=O)(=O)N2CCN(C(=O)CCc3nc4ccccc4c(=O)[nH]3)CC2)c(C)c1", "Potency": "inconclusive [inhibitor, single point]"}, {"smiles": "CC(=O)Nc1ccc(S(=O)(=O)N2C(C)CCCC2C)cc1", "note": "(configuration not stated)", "Potency": "inconclusive [inhibitor, partial curve]"}, {"smiles": "CCc1cccc(N(CC(=O)NC2CCCCC2)C(=O)c2csnn2)c1", "activity change, negative = growth inhibition": "inconclusive: -37.2% [inhibitor]"}, {"smiles": "COc1cccc(C(=O)N2CCCc3ccccc32)c1OC", "activity change, negative = growth inhibition": "inconclusive: -26.2% [inhibitor]"}]}]}
